Test results published in the supplement of paper PMC12645437, “Orthogonal IMiD-Degron Pairs Induce Selective Protein Degradation in Cells” (ACS Chemical Biology, 2025).
This is one part of the list.

Molecular target: no compound (DMSO)
Experiment: log2 fold change of degron read counts, EGFP-low vs EGFP+ sorted cells; higher = lower degron-EGFP level without compound (poor expression or instability)
Conditions: compound: DMSO control; 18 h
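Note: jurkat cells carrying a lentiviral library of mutant zinc finger degrons fused to EGFP plus mCherry, mCherry+ cells FACS sorted, degron abundance counted by next-generation sequencing.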

| Sequence | log2 fold change of degron read counts |
| --- | --- |
| FCCNICGACFTQKGNLLRHIKL | 0.0251 |
| FECNVCGACFTQKGNLLRHIKL | -1.97 |
| FCCEICGHDFTQKGNLLRHIKL | -1.21 |
| FECDVCGAFFTQKGNLLRHIKL | -1.99 |
| FICPICGHEFTQKGNLLRHIKL | -0.396 |
| FKCDVCGAGFTQKGNLLRHIKL | -1.83 |
| FQCPICGAGFTQKGNLLRHIKL | 0.00668 |
| LWCNQCGFYCTQKGNLLRHIKL | 2.55 |
| FWCNVCGAIFTQKGNLLRHIKL | 1.45 |
| LGCNQCGFFCTQKGNLLRHIKL | 1.68 |
| FRCEICGAEFTQKGNLLRHIKL | -2.75 |
| LVCNQCGFGCTQKGNLLRHIKL | 0.306 |
| FKCPICGAEFTQKGNLLRHIKL | -0.435 |
| FECEICGRRFTQKGNLLRHIKL | -1.71 |
